Data as given in paper PMC4336329 (PLoS ONE, 2015).
Screen size: about 310,000 compounds; about 2,200 (0.71%) showed an effect of 50% or more. The effect is printed as a negative number. Some of the results follow.

molecular target: human ether-à-go-go-related gene (hERG) potassium channel (human, UniProt Q12809); assay: primary screen, population patch clamp on CHO cells stably expressing hERG
Sequence (Q12809 whole entry, looked up): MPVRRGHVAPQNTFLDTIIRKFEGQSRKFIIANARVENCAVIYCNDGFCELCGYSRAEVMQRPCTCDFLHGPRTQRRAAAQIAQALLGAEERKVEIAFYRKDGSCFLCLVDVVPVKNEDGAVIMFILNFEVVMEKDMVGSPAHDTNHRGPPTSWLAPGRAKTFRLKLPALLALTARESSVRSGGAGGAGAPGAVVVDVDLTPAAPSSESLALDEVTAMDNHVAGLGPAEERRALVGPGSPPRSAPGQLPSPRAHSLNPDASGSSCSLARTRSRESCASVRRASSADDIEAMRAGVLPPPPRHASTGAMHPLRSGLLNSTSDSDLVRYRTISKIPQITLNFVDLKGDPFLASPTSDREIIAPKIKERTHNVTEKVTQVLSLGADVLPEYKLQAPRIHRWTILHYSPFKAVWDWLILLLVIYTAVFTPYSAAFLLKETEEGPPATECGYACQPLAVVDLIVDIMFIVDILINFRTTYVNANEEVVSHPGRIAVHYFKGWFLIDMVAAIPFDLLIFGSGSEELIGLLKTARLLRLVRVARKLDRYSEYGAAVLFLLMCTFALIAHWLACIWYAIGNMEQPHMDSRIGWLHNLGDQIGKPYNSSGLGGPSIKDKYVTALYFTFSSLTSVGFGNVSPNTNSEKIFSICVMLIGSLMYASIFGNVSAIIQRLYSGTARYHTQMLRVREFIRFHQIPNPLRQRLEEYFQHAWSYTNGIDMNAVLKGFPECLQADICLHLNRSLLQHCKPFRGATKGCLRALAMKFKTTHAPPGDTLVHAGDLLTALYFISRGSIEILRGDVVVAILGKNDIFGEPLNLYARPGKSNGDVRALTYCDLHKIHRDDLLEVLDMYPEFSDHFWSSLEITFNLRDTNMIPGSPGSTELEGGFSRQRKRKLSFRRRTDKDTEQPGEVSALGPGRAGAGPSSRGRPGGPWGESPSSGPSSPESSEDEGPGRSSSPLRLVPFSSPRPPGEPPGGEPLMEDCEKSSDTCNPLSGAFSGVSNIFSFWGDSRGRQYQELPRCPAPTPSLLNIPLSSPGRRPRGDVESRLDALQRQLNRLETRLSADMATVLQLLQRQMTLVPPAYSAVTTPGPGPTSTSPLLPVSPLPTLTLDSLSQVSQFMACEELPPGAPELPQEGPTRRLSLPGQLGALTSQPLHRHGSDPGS

Row | Compound | hERG current change (%, negative = inhibition) at 1uM [%]
1 | O=S(=O)(c1ccc(N2CCCC2c2nc3ccccc3s2)nc1)N1CCOCC1 (centres unmarked) | 12.7
2 | CCOCCCNC(=O)c1ccc(OC)c(OC2CCN(C(C)C)CC2)c1 | 13.2
3 | O=c1[nH]c2ccc(NC(=S)NCc3ccccc3)cc2[nH]1 | 8.48
4 | CC(=O)Nc1nc(C)c(C(C)=O)s1 | 12.4
5 | CCCOC(=O)c1sc2nc3c(cc2c1N)C(=O)CCC3 | 12
6 | CN1C(=O)N(C)C2(C)CC1(C)N(C)C(=O)N2C | 24.7
7 | Cc1cc(NC(=O)COC(=O)c2c(C)nn(Cc3ccccc3Cl)c2C)no1 | 8.53
8 | COCc1ccc(CN2CCC(n3nccc3NC(=O)CCCc3ccccc3)CC2)o1 | 63
9 | CCc1ccc(NC(=O)C(C)OC(=O)c2ccc(-n3cnnn3)cc2)cc1 (centres unmarked) | -1.61
10 | COc1ccc(CN=CC2=C(O)CNC2=O)cc1 | 8.98
11 | C/C(=N\NC(=S)NCc1ccccc1)c1ccc(C)o1 | -1.19
12 | COc1ccc(NC(=O)C2CC(=O)NC(Nc3cccc(C)c3)=N2)cc1 (centres unmarked) | 11.6
13 | Cl.NC(=NCc1ccccc1)c1cccc([N+](=O)[O-])c1 | -1.93
14 | COc1cccc(-c2ccc(C#N)c(OC(=O)c3ccc(Cl)cc3)n2)c1 | 3.1
15 | Cc1ccc2c(c1)N(C(=O)CCC(=O)N1CCC(C(N)=O)CC1)CC(C)O2 (centres unmarked) | 6.45
16 | O=C1C=C(NCc2ccncc2)CC(c2ccccc2)C1 (centres unmarked) | -22.8
17 | COc1ccc(NC(=O)Nc2cccc3ccccc23)c(OC)c1 | 11.3
18 | CCOC(=O)C1=C(COC(=O)CCOc2cccc(C)c2)NC(=O)NC1C (centres unmarked) | 7.56
19 | O=S(=O)(O)CCN1CCOCC1 | 9.27
20 | O=C(Nc1ccccc1)c1ccccc1CSc1ccccc1 | 2.86
21 | COc1ccccc1NC(=O)CN(C)S(=O)(=O)c1cccc2cccnc12 | 14.1
22 | N=c1c2c(-c3ccccc3)c(-c3ccccc3)n(Cc3ccco3)c2ncn1CCN1CCOCC1 | -72.3

Row | Compound | hERG current change (%, negative = inhibition) at 1uM [%]
23 | Cc1ccc(-c2cn(-c3ccccc3)c(SCC(=O)NC3CCS(=O)(=O)C3)n2)cc1C (centres unmarked) | 8.68
24 | CN(CC(=O)Nc1ccccc1Cl)C(=O)COC(=O)Cc1c(F)cccc1Cl | 8.28
25 | CC(CN1CCC(n2nccc2NC(=O)c2ccccc2Cl)CC1)c1ccccc1 (centres unmarked) | -43.6
26 | CN(Cc1cc2ccccc2[nH]c1=O)C(=O)COc1ccccc1 | -0.0687
27 | O=C1CSC(c2nn(-c3ccccc3)cc2-c2cc3ccccc3oc2=O)N1Cc1ccco1 (centres unmarked) | 8.17
28 | COc1ccc(C=NCC2COc3ccccc3O2)cc1OC.Cl (centres unmarked) | 4.99
29 | CCc1ccccc1NC(=O)c1ccc(NCCc2ccccc2)c([N+](=O)[O-])c1 | 4.62
30 | CCCOC(=O)C1C2c3ccccc3C(c3ccccc32)C1C(=O)O (centres unmarked) | 15.4
31 | C#CC(C)(C)NC(=O)c1cnc(-c2ccccc2)nc1-c1ccccc1 | 13.1
32 | O=c1c(C=NCCN2CCNCC2)c(-c2ccccc2)[nH]n1-c1ccc([N+](=O)[O-])cc1 | -31
33 | Cc1ccc(S(=O)(=O)NC2=C(N3CCN(Cc4ccccc4)CC3)C(=O)c3ccccc3C2=O)cc1 | 7.91
34 | Cc1nc(C)c(CCNC(=O)c2ccc(C(F)(F)F)cc2)s1 | -2.89
35 | Cc1ccc(C2Nc3ccccc3NC3=C2C(=O)OC(C)C3)cc1 (centres unmarked) | 8.51
36 | CC(C)C[C@H](NC(=O)[C@@H](Cc1ccccc1)n1c(=O)[nH]c2ccccc2c1=O)C(=O)N[C@@H](Cc1ccccc1)C(=O)O | -0.933
37 | Cc1c(C)c2ccc(OCC(=O)N3CCN(c4ccccc4)CC3)cc2oc1=O | -4.53
38 | CC(N)=Nc1ccc([N+](=O)[O-])cc1 | 14.5
39 | Cc1ccc([C@@H]2[C@@H]3C(=O)N(c4ccccc4)C(=O)[C@@H]3[C@]3(C)C(=O)N(Cc4ccccn4)CC(=O)N23)o1 | 11.1
40 | COc1ccc(OC)c(S(=O)(=O)N2CCC(C(=O)NCCc3ccccc3)CC2)c1 | 1.04
41 | COC(=O)CSc1nc2cc(OC)ccc2cc1C#N | 8.04
42 | CNC(=O)COc1coc(CN2CCN(c3ccccc3)CC2)cc1=O | 8.02
43 | CCOc1cc(S(=O)(=O)n2ccnc2)ccc1Br | 14.5
44 | Cc1cc(C)c(C(=O)Nc2cccc(F)c2)c(Cl)n1 | 5.53
